This is an account of results in paper PMC4336329 (PLoS ONE, 2015).

Structures are written as SMILES. Screen size: about 310,000 compounds; about 14,000 (4.5%) showed an effect of 50% or more. The effect is printed as a negative number. The list shows a part of the results.
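Note: peak tail current of the secondary pulse compared with the same well before compound.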

Chain of human ether-à-go-go-related gene (hERG) potassium channel (Q12809 whole entry, looked up): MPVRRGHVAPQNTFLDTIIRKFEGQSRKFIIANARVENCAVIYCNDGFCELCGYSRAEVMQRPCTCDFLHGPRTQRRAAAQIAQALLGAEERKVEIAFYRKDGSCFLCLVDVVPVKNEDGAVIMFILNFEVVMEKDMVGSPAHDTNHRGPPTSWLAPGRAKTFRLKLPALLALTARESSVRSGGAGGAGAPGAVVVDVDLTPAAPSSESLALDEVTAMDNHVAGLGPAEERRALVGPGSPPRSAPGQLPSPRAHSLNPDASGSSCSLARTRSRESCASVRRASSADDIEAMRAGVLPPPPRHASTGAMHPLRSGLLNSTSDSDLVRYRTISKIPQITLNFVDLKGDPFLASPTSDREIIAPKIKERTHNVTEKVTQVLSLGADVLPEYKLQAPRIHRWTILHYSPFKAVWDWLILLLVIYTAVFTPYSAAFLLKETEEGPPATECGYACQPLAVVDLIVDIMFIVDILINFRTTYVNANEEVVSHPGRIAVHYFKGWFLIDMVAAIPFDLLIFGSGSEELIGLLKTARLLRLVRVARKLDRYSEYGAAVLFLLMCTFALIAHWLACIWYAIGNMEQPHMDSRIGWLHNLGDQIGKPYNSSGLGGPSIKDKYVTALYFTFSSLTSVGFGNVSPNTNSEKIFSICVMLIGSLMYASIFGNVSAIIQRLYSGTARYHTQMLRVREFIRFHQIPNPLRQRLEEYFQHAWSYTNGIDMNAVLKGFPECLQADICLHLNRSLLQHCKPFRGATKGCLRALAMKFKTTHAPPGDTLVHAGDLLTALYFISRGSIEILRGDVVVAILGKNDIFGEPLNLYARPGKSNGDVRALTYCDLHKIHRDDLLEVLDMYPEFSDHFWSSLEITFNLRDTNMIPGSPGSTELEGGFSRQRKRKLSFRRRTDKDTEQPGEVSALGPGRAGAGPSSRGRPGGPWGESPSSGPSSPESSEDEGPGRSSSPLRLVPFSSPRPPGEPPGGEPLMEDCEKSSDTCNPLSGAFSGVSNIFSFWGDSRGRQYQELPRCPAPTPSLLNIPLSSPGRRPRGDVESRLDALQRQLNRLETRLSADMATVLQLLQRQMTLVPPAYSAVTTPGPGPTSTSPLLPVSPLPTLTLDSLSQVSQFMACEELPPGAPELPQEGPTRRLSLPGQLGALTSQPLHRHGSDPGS

The experiment has as its target human ether-à-go-go-related gene (hERG) potassium channel (human, UniProt Q12809). As to the kind of experiment: primary screen, population patch clamp on CHO cells stably expressing hERG.
Take `Cc1ccc(C2C(C#N)=C(N)Oc3n[nH]c(-c4ccccc4)c32)o1` (stereo not drawn): the “hERG current change (%, negative = inhibition) at 10uM” value stood at 5.94%. For `Cc1noc(C)c1C(=O)OCC(=O)C12CC3CC(CC(C3)C1)C2`, the “hERG current change (%, negative = inhibition) at 10uM” value turned out to be 1.18%.

As to `CCOC(=O)c1cncn1[C@H](C)c1ccccc1`, the “hERG current change (%, negative = inhibition) at 10uM” value is reported as 6.17%. With `O=C(Nc1ccccc1)c1cccc(S(=O)(=O)Oc2ccc([N+](=O)[O-])cc2)c1`, the “hERG current change (%, negative = inhibition) at 10uM” value was -56.4%.

As to `CCOC(=O)[C@H]1[C@H]2COc3ccc(C)cc3[C@@H]2N2C(=O)CN(Cc3ccco3)C(=O)[C@@]12C`, the “hERG current change (%, negative = inhibition) at 10uM” value was -0.0676%.

`COC(=O)C1=C(C)N(c2ccc(C)cc2)/C(=C/c2ccc(O)cc2)C1=O`: the “hERG current change (%, negative = inhibition) at 10uM” value came to 32.2%. `Cc1ccc(C)c(S(=O)(=O)Nc2ccc(O)c3ccccc23)c1`: the “hERG current change (%, negative = inhibition) at 10uM” value is -18.1%. With `CN(C)c1ccc(NC(=S)NCC2CCCO2)cc1` (stereo not drawn), the “hERG current change (%, negative = inhibition) at 10uM” value is 3.56%. The value for `O=C(O)C(=O)O.O=C(c1ccccc1)c1ccc(OCCCN2CCCC2)cc1` was -70.6%; that for `C[C@@H]1C[C@@H]2OC(=O)[C@]3(C)[C@H]2[C@@H](OC3(C)O)[C@]2(C)C(=O)CC[C@H]12` (stereo partly drawn) was 4.01%. `Cc1c(Cl)cccc1NS(=O)(=O)c1ccc(-c2ccc(=O)[nH]n2)o1`: the “hERG current change (%, negative = inhibition) at 10uM” value is recorded as 12.7%. Take `CCOC(=O)Nc1ccc(S(=O)(=O)Nc2nc(C)cc(C)n2)cc1`: the “hERG current change (%, negative = inhibition) at 10uM” value is given as -17.7%.

Regarding `S=c1[nH]nc(-c2ccccc2)o1`, the “hERG current change (%, negative = inhibition) at 10uM” value is recorded as 15.1%.

`CC(Sc1nc(NCc2ccccc2)nc(N2CCOCC2)n1)C(=O)Nc1ccccc1` (stereo not drawn): the “hERG current change (%, negative = inhibition) at 10uM” value came out at 8.24%. On to `N#C/C(=C/c1ccc(OCc2ccccc2)cc1)C(=O)NC1CCCCC1`, for which the “hERG current change (%, negative = inhibition) at 10uM” value turned out to be 7.76%. Turning to `Cc1cnc(C(=O)OCC(=O)c2ccc(F)c(F)c2)cn1`, the “hERG current change (%, negative = inhibition) at 10uM” value worked out at 0.157%. For `CC(=O)Nc1ccc(S(=O)(=O)N2CCCC(C(=O)O)C2)cc1` (stereo not drawn), the “hERG current change (%, negative = inhibition) at 10uM” value is reported as -3.16%. With `COc1cc(/C=N/NC(=O)CCC(=O)NCc2ccccc2)cc(OC)c1OC`, the “hERG current change (%, negative = inhibition) at 10uM” value came out at 8.99%. Turning to `O=C1CC2(CC(c3ccc(Cl)cc3)=NO2)C(=O)N1c1ccccc1` (stereo not drawn), the “hERG current change (%, negative = inhibition) at 10uM” value is reported as -2.86%.

`CC(=O)c1cc2c(cc1N/C(=N/S(=O)(=O)c1ccc(C)cc1)c1ccc(Cl)cc1)OCO2`: the “hERG current change (%, negative = inhibition) at 10uM” value is 7.23%. Turning to `O=C(COC(=O)Cc1ccc(Cl)c(Cl)c1)Nc1ccc2[nH]c(=O)[nH]c2c1`, the “hERG current change (%, negative = inhibition) at 10uM” value came out at 16.5%. Consider `CCOc1cc(CNCCCN2CCOCC2)ccc1OCC(=O)NC(C)(C)C.Cl`, for which the “hERG current change (%, negative = inhibition) at 10uM” value was -2.55%. Take `Cc1ccc(CNC(=O)c2nnn(-c3cccc(C)c3)c2N)cc1`: the “hERG current change (%, negative = inhibition) at 10uM” value is -22.6%. Take `CCOc1ccc(N(CC(=O)O)S(=O)(=O)c2ccc(OC)c(OC)c2)cc1`: the “hERG current change (%, negative = inhibition) at 10uM” value is given as 13.7%.

With `COc1ccccc1N1CCN(CC(O)COc2ccc(S(=O)(=O)N3CCOCC3)cc2)CC1.Cl` (stereo not drawn), the “hERG current change (%, negative = inhibition) at 10uM” value is -4.3%. Regarding `CCOC(=O)c1cc(S(=O)(=O)N2CCN(C(=O)OCC)CC2)cn1C`, the “hERG current change (%, negative = inhibition) at 10uM” value is recorded as -3.2%. The value for `COC(=O)CCCCCNc1ccc(C(=O)OC)cc1N` was 11%.

Take `Cc1ccc(S(=O)(=O)N2CCN(C(=O)C(C)Cn3cncn3)CC2)cc1C` (stereo not drawn): the “hERG current change (%, negative = inhibition) at 10uM” value is given as 8.65%. For the compound `CCC(C)(C(=O)NC1CCCC1)N(C(=O)CNC(C)=O)c1ccccc1` (stereo not drawn), the “hERG current change (%, negative = inhibition) at 10uM” value was 0.426%. Consider `CCc1cccc2c3c([nH]c12)C(CC)(CC(=O)O)OCC3` (stereo not drawn), for which the “hERG current change (%, negative = inhibition) at 10uM” value is 16.1%. The value for `O=C(Nc1ccc(S(=O)(=O)Nc2ccccc2)cc1)C1CC1` was -3.52%; that for `CCCNC(=O)c1ccc(N2CC3CC(C2)c2cccc(=O)n2C3)c(NC(=O)Nc2ccc(CC)cc2)c1` (stereo not drawn) was -78.7%; that for `COc1cc(OC)cc(C(=O)NN2CCCCC2)c1` was -4.37%.

Take `O=S(=O)(Nc1ccc2c(c1)OCCO2)c1ccc(F)cc1`: the “hERG current change (%, negative = inhibition) at 10uM” value is listed as -3.41%. For `Cc1oc(/C=N/NS(=O)(=O)c2ccccc2)cc1Br`, the “hERG current change (%, negative = inhibition) at 10uM” value is listed as -7.5%. Regarding `O=C(c1ccccc1)N1CCN(C(=O)c2ccc(OC(F)(F)F)cc2)CC1`, the “hERG current change (%, negative = inhibition) at 10uM” value is listed as -62.8%. As to `O=C(CNS(=O)(=O)c1ccc2ccccc2c1)OCC(=O)c1ccc(Br)s1`, the “hERG current change (%, negative = inhibition) at 10uM” value is listed as 17.2%. As to `Oc1ccc(Cl)cc1/C=N/c1nccs1`, the “hERG current change (%, negative = inhibition) at 10uM” value is 7.9%.

For the compound `COc1ccc(C(=O)Nc2ccccc2C(=O)N/N=C/c2ccncc2)cc1OC`, the “hERG current change (%, negative = inhibition) at 10uM” value turned out to be 0.749%.

Turning to `CCOC(=O)c1oc2cc(O)c(CC)cc2c(=O)c1-c1cscn1`, the “hERG current change (%, negative = inhibition) at 10uM” value amounted to 2.56%.

In the case of `Cc1ccc(C(=O)N/N=C\c2ccc(-c3ccc(Cl)cc3)o2)cn1`, the “hERG current change (%, negative = inhibition) at 10uM” value is -47.6%. On to `COc1ccccc1CC(=O)Nc1ccc(S(=O)(=O)N2CCOCC2)cc1`, for which the “hERG current change (%, negative = inhibition) at 10uM” value was 7.44%. Take `Cc1c(OCc2ccccc2)c(=O)ccn1Cc1ccc(F)cc1`: the “hERG current change (%, negative = inhibition) at 10uM” value is given as 4.21%. With `CCOc1ccccc1NC(=O)C1CCCN(S(=O)(=O)c2ccc3c(c2)C(C)(C)C(=O)N3C)C1` (stereo not drawn), the “hERG current change (%, negative = inhibition) at 10uM” value was -11.9%. Regarding `COc1ccc(CNC(=O)[C@@H](NC(=O)C2CCN(C(=O)[C@@H](N)CCSC)CC2)C(C)C)cc1`, the “hERG current change (%, negative = inhibition) at 10uM” value was 14.7%.
